Source: PubChem BioAssay AID488969 (Vanderbilt High Throughput Screening Facility, 2010)
In all, about 110,000 compounds were measured (“z-score”: median about -0.1, highest 2% from about 2 on). Some of the results follow. Calls of active or inactive are those of the source.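 The calls were made as follows: active = z-score in the third read window above 3 or below -3; inactive = the rest.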

target: Metabotropic glutamate receptor 8 (Rattus norvegicus) (UniProt P70579); experiment: mGluR8 Gi/Go-coupled signaling modulation – cell-based, rat, thallium flux, HTS, primary screen (AID 488969); settings: HEK293 rat mGluR8, GIRK (G protein-gated inwardly rectifying potassium channel) thallium flux, FluoZin2; at 10 µM; stronger effect = higher value; submaximal glutamate (EC20) added with thallium
UniProt P70579, sequence (P70579 whole entry, looked up): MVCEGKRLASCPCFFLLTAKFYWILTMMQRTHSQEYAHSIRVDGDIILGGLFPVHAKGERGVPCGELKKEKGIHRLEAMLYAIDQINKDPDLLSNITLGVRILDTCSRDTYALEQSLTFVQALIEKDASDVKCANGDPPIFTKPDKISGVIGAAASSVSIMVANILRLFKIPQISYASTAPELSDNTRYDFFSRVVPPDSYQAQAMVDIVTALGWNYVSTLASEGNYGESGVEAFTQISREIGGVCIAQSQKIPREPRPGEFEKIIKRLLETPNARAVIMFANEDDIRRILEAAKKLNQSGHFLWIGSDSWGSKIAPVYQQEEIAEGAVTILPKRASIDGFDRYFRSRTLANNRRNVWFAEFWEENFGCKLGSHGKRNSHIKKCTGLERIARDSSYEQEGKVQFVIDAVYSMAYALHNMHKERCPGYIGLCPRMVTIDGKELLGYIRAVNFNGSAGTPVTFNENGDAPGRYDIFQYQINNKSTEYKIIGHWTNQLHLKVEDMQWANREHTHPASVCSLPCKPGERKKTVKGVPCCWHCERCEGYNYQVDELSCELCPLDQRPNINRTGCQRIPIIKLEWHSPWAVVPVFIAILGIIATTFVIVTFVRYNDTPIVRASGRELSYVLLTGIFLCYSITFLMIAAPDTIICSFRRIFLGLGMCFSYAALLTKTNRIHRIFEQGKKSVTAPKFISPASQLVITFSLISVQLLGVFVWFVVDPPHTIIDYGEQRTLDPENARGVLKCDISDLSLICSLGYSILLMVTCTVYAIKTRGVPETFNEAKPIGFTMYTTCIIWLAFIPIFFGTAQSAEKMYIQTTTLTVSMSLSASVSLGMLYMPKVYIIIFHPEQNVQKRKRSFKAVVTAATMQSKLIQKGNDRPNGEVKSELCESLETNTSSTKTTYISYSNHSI

Point of comparison: Cc1ccccc1C(=O)c1cccn1CC(=O)N1CCCCCC1, z-score -0.197. Against it:
- COCC(=O)Nc1sc2c(c1C(=O)OC)CCCC2 — higher, 1.59
- Cc1ccc(OCC(=O)OCC(=O)Nc2sccc2C(N)=O)cc1C — lower, -0.496
- COc1ccc(N(C(=O)Cc2cccs2)C(C(=O)NC2CCCCC2)c2cccn2C)cc1 (stereo unspecified) — higher, -0.0427
- CCOC(=O)CN(C(=O)CSc1nnc(Cc2ccccc2)n1-c1ccc(C)cc1)c1ccccc1 — lower, -1.8
- COC(=O)c1sc2ncccc2c1OCc1ccccc1Cl — lower, -0.392
- N#Cc1ccc(/C=N/NC(=O)c2ccccc2F)cc1 — lower, -0.257
- COCCCNC(=O)CS(=O)(=O)Cc1nc(-c2cccc(OC)c2)oc1C — higher, 0.565
- O=C(NC1(O)C(=O)c2ccccc2C1=O)c1ccccc1 — higher, 0.757
- C/C(=C\c1ccccc1)C(=O)Nc1cc(C)on1 — higher, 0.0238
- CCc1ccc(NC(=O)CCc2nc3cccnc3n2Cc2ccc(OC)cc2)cc1 — higher, -0.122
- Cn1c(=O)c2ncn(CC(=O)Nc3cccc(-c4nc5ccccc5s4)c3)c2n(C)c1=O — lower, -0.289
- CCN1CCN(S(=O)(=O)c2ccc(S(=O)(=O)NCC3CCCO3)cc2)CC1 (stereo unspecified) — higher, -0.183
- Cc1oc(C)c(C(=O)NCCCC(=O)O)c1C(=O)NCCCC(=O)O — higher, 0.0315
- CCC(C(=O)O)N1C(=O)c2ccccc2C1=O (stereo unspecified) — higher, -0.172
- COc1ccc(S(=O)(=O)Nc2cccc(N(C)S(C)(=O)=O)c2)cc1C — higher, -0.158
- CCOC(=O)C1CCCN(C(=O)Nc2cccc(Cl)c2)C1 (stereo unspecified) — lower, -0.426
- CCOC(=O)c1c(NC(=O)CSc2nnc(CN3CCOCC3)n2C)sc2c1CCCC2 — lower, -1.78
- CN(Cc1nc(-c2ccncc2)no1)S(=O)(=O)c1ccc(Cl)cc1 — higher, 0.129
- O=C1N(Nc2ccccc2)C(c2ccc(Br)cc2)C12CCCC2 (stereo unspecified) — lower, -0.256
- NS(=O)(=O)c1ccc(NC(=S)NCc2ccccc2)cc1 — higher, 0.272
- CCOc1ccc(-c2cn(-c3cccc(SC)c3)c(=O)[nH]2)cc1 — higher, -0.18
- O=C1c2ccccc2C(Nc2ccc(-c3nc4ccccc4[nH]3)cc2)N1Cc1ccco1 (stereo unspecified) — lower, -0.59
- Cc1cc2[nH]c3ccccc3c2c(C)n1 — higher, 0.416
- CCOC(=O)c1c(NC(=O)CSc2nc3cc(Cl)ccc3c(=O)n2Cc2ccco2)sc(C(=O)N(C)C)c1C — higher, 0.223
- Cc1nc(C2CC(=O)OC23CCCCC3)cs1 (stereo unspecified) — lower, -1.25
- CC1=Nc2ccccc2/C1=C\c1nc(-c2ccc(C(F)(F)F)cc2)oc1O — higher, 0.101
- COc1ccc(O)c(/C=N/NC(=O)CSc2nnc(C)n2-c2ccccc2)c1 — lower, -0.251
- O=C(c1ccc(S(=O)(=O)Nc2ccc(F)cc2)cc1)N1CCN(C(=O)c2ccco2)CC1 — lower, -0.719
- Cc1nn(-c2cc(N3CCCCCC3)ccc2[N+](=O)[O-])c(=O)c2ccccc12 — lower, -1.08
- COc1ccc(CN(CCCN2CCOCC2)C(=O)Nc2ccccc2)cc1OC — higher, 0.0727
- Cc1occc1C(=O)Nc1ccc2ccccc2c1 — higher, 2.19
- Cc1ccccc1-c1nnc(SCC(=O)Nc2c(C)n(C)n(-c3ccccc3)c2=O)o1 — higher, -0.0211
- CCc1ccc(Nc2cc(C(=O)NCCCN3CCOCC3)c3ccccc3n2)cc1 — higher, -0.0137
- Cn1cnc([N+](=O)[O-])c1Nc1ccccc1O — higher, -0.0821
- CCOc1ccccc1C(=O)NC(C(=O)Nc1ccccc1N1CCOCC1)C(C)C (stereo unspecified) — lower, -0.693
- COc1cc(/C=N/N2CCN(c3ccccc3OC)CC2)ccc1O — lower, -0.23
- CC(CCc1ccccc1)NC(=O)C1CCCN(c2nnc(-n3cccc3)s2)C1 (stereo unspecified) — lower, -0.535
- CCCCC1(Cc2ccc([N+](=O)[O-])cc2)C(=O)N(c2ccccc2)N(c2ccccc2)C1=O — lower, -0.29
- CCOc1ccc(OCC)c(NC(=O)C2CCCN(S(=O)(=O)c3cnc[nH]3)C2)c1 (stereo unspecified) — higher, 1.47
- CC(C)NC(=O)C1CCN(C(=O)c2ccc(-c3ccccc3)cc2)CC1 — higher, -0.137
- Cc1c(Cl)cccc1NC(=O)c1cc(-c2ccccc2O)n[nH]1 — higher, -0.0616
- CCCC(C)C(=O)Nc1ccc(Cl)cn1 (stereo unspecified) — higher, -0.0543
- CC(=O)C1=C(C)NC(=O)NC1c1cccc(O)c1 (stereo unspecified) — higher, -0.149
- Cc1c(Cl)cccc1N1C(=O)CC(NNC(=O)c2cccnc2)C1=O (stereo unspecified) — higher, -0.0482
- Cc1nn(-c2cccc(Cl)c2)c(Cl)c1/C=N/NC(=O)c1cccs1 — lower, -0.201
- COc1cccc(N2CCN(CC(=O)Nc3nnc(-c4ccccc4)s3)CC2)c1 — higher, 0.998
- CC(C)CNC(=O)c1cccc(NC(=O)C2CCCO2)c1 (stereo unspecified) — higher, -0.0529
- CCN=C1NN=C(c2ccc(C)cc2)CS1 — higher, 1.58
- COc1ccc(-c2nc(SCC(=O)NCc3ccco3)c(-c3ccccc3)[nH]2)cc1OC — lower, -0.712
- Cc1ccc(Oc2nc3ccccc3n3c(C)nnc23)c(C)c1 — higher, -0.144
- CC(C)(C)Nc1nc(SCc2ccccc2)nc(N2CCOCC2)n1 — higher, 0.316
- CC(C)(C)c1cnnn1-c1ccc(C=O)cc1 — higher, 0.185
- CCOc1cccc(/C=N/NC(=S)Nc2cc(S(=O)(=O)N3CCOCC3)ccc2N2CCOCC2)c1O — lower, -0.444
- Cc1ccc(-c2nc(NC(=O)CSc3nnnn3-c3ccccc3)ns2)cc1 — lower, -0.286
- COc1cccc(/C=C/C(=O)OCC(=O)c2cc(C)n(CC3CCCO3)c2C)c1OC (stereo unspecified) — lower, -0.205
- CCOc1ccc(C2C(C#N)=C(N)Oc3cc(C)n(CCN(C)C)c(=O)c32)cc1OCC (stereo unspecified) — higher, -0.133
- CC1=C(C(=O)OCc2ccccc2)C(c2cccnc2)n2nnnc2N1 (stereo unspecified) — higher, 0.152
- COc1cccc(OCc2cc(C3Nc4ccccc4C(=O)N3Cc3ccco3)ccc2OC)c1 (stereo unspecified) — lower, -0.29
- COc1ccc(C(=O)O)cc1F — higher, 0.715
- CSc1nnnn1CCn1nnnc1SC — higher, 0.0871
- CC(=O)c1cccc(NC(=O)c2cc(C(C)C)on2)c1 — lower, -0.333
- N#Cc1c(C(F)(F)F)cc(-c2ccc(Cl)cc2)[nH]c1=O — lower, -2.06
- CCOC(=O)NC1(C(F)(F)F)C(=O)NC(C)=C1C#N (stereo unspecified) — higher, 0.245
- COc1ccc(C(=O)Nc2ccc(N3CCCC3)cc2)cc1 — lower, -0.708
- Clc1ccccc1CSc1nnc(/C=C/c2ccccc2)o1 — lower, -0.356
- CCCCNC(=S)N(C)/N=C/c1ccc2c(c1)OCO2 — higher, -0.124
- CCCS(=O)(=O)N1CCCC(C(=O)NCCCOC(C)C)C1 (stereo unspecified) — higher, -0.0692
- O=C(CSCc1ccccc1Br)N/N=C/c1ccc2c(c1)OCO2 — higher, -0.0558
- CC(C)Sc1nc2c(c(=O)n(C)c(=O)n2C)n1C — higher, -0.0211
- O=C(OCc1cc(=O)n2c(n1)sc1ccccc12)c1ccc(O)cc1 — lower, -0.289
- Cc1[nH]nc2c1C1(CCN(C(=O)c3ccccc3)CC1)C(C#N)=C(N)O2 — lower, -0.486
- Cc1cccc(OCCCn2c(=O)sc3ccccc32)c1 — higher, 0.581
- CCOc1ccc2nc(NCCCO)[nH]c2c1 — higher, 0.103
- Cn1c(N)c(C#N)c(C#N)c1-c1ccccc1 — lower, -0.345
- O=C(OCc1cn(-c2ccc(Cl)c(Cl)c2)nn1)c1ccccc1 — higher, 0.116
- O=C(CCSc1nnc(-c2ccncc2)o1)Nc1ccccc1Cl — higher, 1.06
- Cc1ccc(-c2nc3ccccc3s2)cc1S(=O)(=O)N1CCOCC1 — higher, 0.939
- CCOC(=O)CNc1c(-c2ccc(O)cc2)nc2ccccn12 — higher, -0.16
- Cc1ccc(NC(=O)C(C)c2ccc(-c3ccccc3)c(F)c2)cc1 (stereo unspecified) — higher, -0.0648
- O=C(CSc1nnc(-c2ccco2)o1)c1ccccc1 — lower, -0.662
- Cc1cc(C)c(NC(=O)/C(C#N)=C/c2ccc(OCc3ccc(F)cc3)cc2)c(C)c1 — higher, 0.258
- CCOc1ccc(-c2nnc3sc(COc4ccc(Cl)cc4)nn23)cc1 — higher, 0.775
- CCOC(=O)CN(C(=O)CSc1nnc(C)n1-c1ccccc1)c1ccccc1 — lower, -0.223
- COC(=O)c1ccccc1NC(=O)CSc1nc(N)cc(N)n1 — lower, -0.242
- CCOc1ccccc1Nc1nnc(SCC(=O)Nc2cc(C)on2)s1 — lower, -1.24
- COc1cc(N)ccc1Cc1ccc(N)cc1OC — higher, -0.0145
- Cc1c(NC(=O)c2nn3c(C(F)(F)F)cc(-c4ccccc4)nc3c2Br)c(=O)n(-c2ccccc2)n1C — lower, -0.429
- Cn1c(NC(=O)/C=C/c2ccccc2)cc(=O)n(C)c1=O — higher, -0.0797
- CC(=O)n1c2ccccc2c2ccccc21 — higher, -0.165
- COc1ccc(NC(=O)CSc2cccc3cccnc23)c(OC)c1 — higher, -0.146
- COc1ccc(/C=N\NC(=O)COc2ccc(C(C)(C)C)cc2)cc1Cn1nc(C)cc1C — lower, -0.711
- Cc1cc(=O)[nH]c(SCc2nc3ccccc3s2)n1 — higher, 0.284
- Cc1ccc2cc(S(=O)(=O)NCCC(=O)O)ccc2c1 — higher, -0.123
- O=c1[nH]cnc2c1sc(=S)n2-c1ccccc1 — higher, 0.0676
- Cc1ccc2c([N+](=O)[O-])c(C)ccc2n1 — higher, 0.108
- COc1ccc(C2C3=C(CC(C)(C)CC3=O)Oc3ncn(Cc4ccccc4)c(=N)c32)cc1 (stereo unspecified) — higher, 2.84
- O=C(c1ccc(CS(=O)(=O)c2c(Cl)cccc2Cl)o1)N1CCN(c2ccccn2)CC1 — lower, -0.338
- COc1ccc(CCN2C(=O)C3CC(C)=C(C)CC3C2=O)cc1OC (stereo unspecified) — higher, -0.17
- O=C(NCc1ccc2c(c1)OCO2)c1cccc([N+](=O)[O-])c1 — higher, -0.0173
- CC(OC(=O)c1ccc(S(=O)(=O)N(C)c2ccccc2)cc1)C(=O)NCCC1=CCCCC1 (stereo unspecified) — lower, -0.207
- O=C(NC1CCCCC1)C(c1cccnc1)N(CCc1ccccc1)C(=O)Cc1cccs1 (stereo unspecified) — lower, -0.356
- Cc1ccc(-c2csc(NC(=O)COC(=O)c3cccc(S(=O)(=O)N4CCOCC4)c3)n2)cc1 — higher, -0.111
- O=C1C2C3CCC(C3NCc3ccccc3)C2C(=O)N1Cc1ccccc1 (stereo unspecified) — higher, -0.138
- O=C(O)C1CCC(=O)N(C2CC2)C1c1ccccc1 (stereo unspecified) — higher, 0.0348
- CCn1c(=O)n(CC)c2cc(S(=O)(=O)Nc3ccccc3C)c(C)cc21 — lower, -0.475
- Fc1ccc(-c2nc3c(Cl)cc(C(F)(F)F)cn3c2Cl)cc1 — higher, -0.181
- CCOC(=O)c1c(NC(=O)CN2C(=O)NC(C)(c3ccccc3)C2=O)sc(C)c1C (stereo unspecified) — higher, -0.178
- CCN(CC(=O)Nc1cccc(Br)c1)Cc1nc2ccccc2c(=O)[nH]1 — lower, -0.321

For CC(Oc1ccc(Cl)cc1)C(=O)N/N=C/c1ccsc1 (stereo unspecified), the z-score was active: 11.6.
With Cc1ccc(S(=O)(=O)c2c(C)cc(C)nc2Cl)c(C)c1 the z-score was active: 4.41.
